The campaign covered roughly 110,000 compounds. About 230 (0.21%) showed an effect of 50% or more. The list shows a part of the results.
What follows are compounds tested against DPAP1 (Plasmodium falciparum, UniProt Q8IIJ9) (assay: primary screen, percent inhibition; read by cleavage of a fluorogenic dipeptide substrate; higher = more effect of the substance).
Set-up: species or system P. falciparum D10 trophozoite lysates; single well
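Also: 30 min substrate incubation versus DMSO and 10 µM JCP410 controls.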

DPAP1, sequence (Q8IIJ9 whole entry, looked up): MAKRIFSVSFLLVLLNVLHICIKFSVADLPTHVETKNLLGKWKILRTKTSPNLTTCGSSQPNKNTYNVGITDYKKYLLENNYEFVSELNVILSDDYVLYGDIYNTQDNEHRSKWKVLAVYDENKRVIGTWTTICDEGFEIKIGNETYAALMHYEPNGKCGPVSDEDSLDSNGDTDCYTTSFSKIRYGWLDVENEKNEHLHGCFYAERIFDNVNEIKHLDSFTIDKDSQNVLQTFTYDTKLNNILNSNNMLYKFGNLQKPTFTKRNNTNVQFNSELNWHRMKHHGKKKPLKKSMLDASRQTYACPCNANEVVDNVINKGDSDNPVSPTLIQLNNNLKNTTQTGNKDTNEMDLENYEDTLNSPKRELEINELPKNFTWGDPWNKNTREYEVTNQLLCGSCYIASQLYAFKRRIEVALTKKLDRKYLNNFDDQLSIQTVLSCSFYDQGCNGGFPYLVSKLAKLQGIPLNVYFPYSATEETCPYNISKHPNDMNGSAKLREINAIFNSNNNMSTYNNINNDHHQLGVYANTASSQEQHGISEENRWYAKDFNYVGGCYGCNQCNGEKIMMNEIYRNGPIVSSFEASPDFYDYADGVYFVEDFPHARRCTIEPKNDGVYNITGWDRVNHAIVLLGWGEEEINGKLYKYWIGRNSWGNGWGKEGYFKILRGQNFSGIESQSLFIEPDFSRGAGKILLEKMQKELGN

Structure (SMILES) | % Inhibition @ 10 uM [%]
COC(=O)C1=C(c2ccccc2)S(=O)(=O)CCN1C(C)=O | 4.42
CCn1cc(C(=O)O)c(=O)c2cc(F)c(N3CCN(C(N)=S)CC3)cc21 | -0.0404
CCn1c(C(=O)O)c(CNCCc2ccc(Cl)cc2)c2ccccc21 | -1.44
CC(C)(C)c1ccc(OCCCCCn2ccnc2)cc1 | 2.26
CCOC(=O)N1CCN(c2cc(C)nc3nc(Cc4ccc(Cl)cc4)nn23)CC1 | -0.946
COC(=O)c1c(NC(=O)c2ccc(Cl)cc2)sc2c1CCC(C)C2 (stereo not shown) | 9.1
CCN(C(=O)Cc1coc2ccc3ccccc3c12)c1ccccc1 | 9.61
COc1cc2c(cc1OC)C(C)N(C(=O)c1noc3c1COc1ccc(C)cc1-3)CC2 (stereo not shown) | 7.87
Fc1ccccc1N1CCN(CCCc2ccccc2)CC1 | 1.62
c1ccc(CN2CCN(Cc3ccco3)CC2)cc1 | 3.25
CCOC(=O)c1cc(-c2ccccc2)n(CC(=O)N2CCCC2)c1C | 1.2
Cc1ccc(S(=O)(=O)c2nnn3c2nc(NCc2cccs2)c2ccccc23)cc1 | 11.3
CCCC[C@H](NC(=O)[C@H](CC(C)C)NC(=O)OCc1ccccc1)C1=NNC(=O)C1 | 1.35
COc1ccc(Br)cc1C(=O)Nc1ccc2c(c1)C(=O)N(CC(C)C)C2=O | -12.3
CC1=[N+]([O-])C(C)(c2ccc(Cl)cc2)[N+]([O-])=C1c1ccccc1 (stereo not shown) | 1.63
N#C/C(=C/c1cccc(Cl)c1)c1nc(-c2ccc(Cl)cc2)cs1 | -2.32
COc1ccc(OC)c(NC(=O)c2ccccn2)c1 | 3.04
COc1ccc(C2(C(=O)Nc3ccccc3)CCOCC2)cc1 | -9.12
CCC(NC(=O)OC)C12CC3CC(CC(C3)C1)C2 (stereo not shown) | 5.52
COc1ccc(CNc2nc3c(c(=O)n(C)c(=O)n3C)n2Cc2ccc(OC)cc2)cc1 | 3.35
Clc1ccc(N2CCN(C3C4CC5CC(C4)CC3C5)CC2)cc1 (stereo not shown) | -2.18
COc1c2occc2c(OC)c2c(=O)cc(C(=O)O)oc12 | -1.29
COc1cccc(-c2nc(S)c3c(n2)Oc2c(cccc2OC)C3)c1O | -0.246
CC(Oc1ccc2oc(-c3ccccc3)c(C(=O)O)c2c1)C(=O)O (stereo not shown) | 1.37
CC1(NC(=S)N(CCO)CCO)CCS(=O)(=O)C1 (stereo not shown) | -6.44

Structure (SMILES) | % Inhibition @ 10 uM [%]
c1ccc(CNc2cccc3nonc23)cc1 | 0.751
CCC1CCc2c(sc(NC(=O)c3cccnc3Cl)c2C(N)=O)C1 (stereo not shown) | 2.7
Cc1cccn2c(=O)c3cc(C(=O)NCCCn4ccnc4)n(C)c3nc12 | 3.92
NS(=O)(=O)c1ccc(-n2cccc2C=O)cc1 | 0.685
COc1ccc(C2C(C#N)=C(N)Oc3cc(C)oc(=O)c32)c(C)c1C (stereo not shown) | -4.94
O=S(=O)(c1ccc2c(c1)OCCO2)N1CCCCCC1 | -11.2
O=C(NCC1CCCO1)c1nc(-c2ccc(-n3cccc3)cc2)no1 (stereo not shown) | 3.66
CCOC(=O)c1c(-c2ccccc2)oc2cc(Br)c(O)cc12 | 3.04
CCOC(=O)N1CCN(C(=O)c2cnc3ccc(S(=O)(=O)N(CC)CC)cc3c2O)CC1 | -4.06
Cc1nc(N2CCCCCC2)c2cc(-c3ccccc3)sc2n1 | -1.6
O=C(Nc1ccc(F)cc1F)c1ccc([N+](=O)[O-])cc1 | -1.48
O=C(C1CCCN(c2cnnc3c(Cl)cccc23)C1)N1CCCC1 (stereo not shown) | -0.631
CSc1nc2c(c(=O)n1C)C(C)(C)Cc1ccccc1-2 | -1.2
S=C(NC12CC3CC(CC(C3)C1)C2)NC12CC3CC(CC(C3)C1)C2 | -0.274
COc1ccccc1CNC(=O)c1cc(S(=O)(=O)N2CCOCC2)ccc1F | -3.78
Cc1ccc2nc(NC(=O)c3nc(SC(C)C)ncc3Cl)sc2c1 | 2.41
COCc1cc(C)nc(SCc2nc(O)c3ccccc3n2)c1C#N | 4.58
COc1ccc(S(=O)(=O)N(C)CC(=O)NCC2CCCO2)cc1 (stereo not shown) | -3.53
O=C(Nc1ccncc1)c1cc(-c2ccc(Cl)s2)nc2ccccc12 | -0.68
COc1ccccc1OCCCC(=O)Nc1ccccc1C(C)C | -3.92
O=C(NCc1ccccn1)c1nnc(-c2cccnc2)o1 | 3
Cc1ccc(NS(=O)(=O)c2ccccc2)nc1 | -2.81
Fc1cccc(Cl)c1CN1CCN(c2ccccc2)CC1 | 1.08
O=C(c1ccc(CS(=O)(=O)c2ccc(Br)cc2)o1)N1CCN(c2ccccn2)CC1 | -1.28
O=C(CN1C(=O)C2C3c4ccccc4C(c4ccccc43)C2C1=O)Nc1cccc(Cl)c1 (stereo not shown) | 2.08

Structure (SMILES) | % Inhibition @ 10 uM [%]
Cc1cccn2c(=O)c3cc(C(=O)NC(C)c4ccccc4)n(C)c3nc12 (stereo not shown) | -1.56
CC1Cc2nc(SCC(=O)N3CCOCC3)n(CCc3ccccc3)c(=O)c2S1 (stereo not shown) | 4.23
Cn1c2c(c(=O)n(C)c1=O)C(NC(=O)COc1ccccc1)(C(F)(F)F)C(=O)N2 (stereo not shown) | 0.189
CCC(=O)N1c2ccccc2N=C2CC(C)(C)CC(O)=C2C1c1ccc(OC)c(OC)c1 (stereo not shown) | 2.69
Cc1nnc(NC(=O)CSc2nnc(CNC(=O)COc3ccc(Cl)cc3)o2)s1 | -5.27
O=C(Nc1ccc(C(=O)N2CCOCC2)cc1)c1cnn2c(C(F)F)cc(-c3ccccc3)nc12 | 0.35
COc1ccc(-c2nnc(SCc3csc(C)n3)o2)cc1OC | 1.84
Cc1csc2nc(=O)c3c4c(sc3n12)CCCC4 | 5.63
O=C(COc1ccc(Cl)cc1Cl)Nc1ccccc1C(F)(F)F | -2.6
CCCCC12CN3CC(C)(CN(C1)C3c1ccccc1Cl)C2=O (stereo not shown) | 0.00706
Cc1cccc(OCCCCc2c(C)n[nH]c2C)c1 | -0.351
CCC(C)NC(=O)Cc1c(C)nc2cc(-c3ccccc3)nn2c1C (stereo not shown) | 0.953
CCS(=O)(=O)c1ncc(Cl)c(C(=O)Nc2nnc(SCc3ccccc3Cl)s2)n1 | 1.99
O=C(Nc1ccc(S(=O)(=O)N2CCc3ccccc32)cc1)c1ccc(F)cc1 | -2.8
Cc1ccccc1NS(=O)(=O)c1ccc(Cl)c(C(F)(F)F)c1 | 0.583
O=C(CCSCCC(=O)Nc1ccc(F)c(F)c1)Nc1ccc(F)c(F)c1 | -1.12
CC1CCN(S(=O)(=O)c2ccc3nc(O)oc3c2)CC1 | -3.68
O=C(CSCCc1ccccn1)Nc1cccnc1 | 6.5
Cn1ncc2c(N3CCN(Cc4ccccc4)CC3)ncnc21 | 8.36
O=C(NCCCNC1=NS(=O)(=O)c2ccccc21)c1ccc(S(=O)(=O)N2CCOCC2)cc1 | -2.98
CSc1cccc(NC2CCN(CCc3ccccc3)CC2)c1 | -1.15
CC(C)(Cc1nc2ccccc2[nH]1)C(=O)O | -2.91
O=C(O)C1CC=CCC1C(=O)Nc1ccccc1C(F)(F)F (stereo not shown) | 4.64
CN(C)CCSc1nc(O)c(-c2ccccc2)c(O)n1 | -1.82
COc1ccccc1C(=O)NCCN1CCCC1 | -2.05

Structure (SMILES) | % Inhibition @ 10 uM [%]
COc1ccc(/C=C2\S/C(=N/c3cccc(C(=O)O)c3)N(C)C2=O)cc1Br | 6.35
CN1C(=O)c2ccccc2C(C(=O)NCc2ccc(F)cc2)C1c1c[nH]c2ccccc12 (stereo not shown) | 0.559
CCCOc1ccc(C2C(C(=O)OCC)=CN(Cc3ccc(F)cc3)C=C2C(=O)OCC)cc1OC | -3.23
Cc1cc(C)nc(N2N=C(CSc3nnc(C)s3)CC2=O)n1 | 3.93
CCN(CC)S(=O)(=O)c1ccc(NC(=O)COc2ccc3ccccc3c2Br)cc1 | -0.413
CCn1cc(/C=C2\SC(=O)N(CC(=O)Nc3ccc4c(c3)OCO4)C2=O)c2ccccc21 | 0.931
NC(=O)C1CCN(Cc2ccccc2Cl)CC1 | -7.02
Cc1ccc(N2C(=O)CC(NC3CCCCCCC3)C2=O)cc1 (stereo not shown) | -7.61
O=C(NCCc1ccc(Cl)cc1)c1cnc(N2CCCC2)nc1 | 0.44
O=C(c1ccc(Cn2cc(Cl)cn2)cc1)N1N=C(C(F)F)CC1(O)C(F)F (stereo not shown) | -3.77
COc1ccc(C2Nc3ccc4ncccc4c3C3=C2C(=O)CCC3)cc1OC (stereo not shown) | 0.673
O=C(O)c1cccc2c1NC(C1CC=CCC1)C1CC=CC21 (stereo not shown) | 18.8
CCOC(=O)c1cnc2c(-c3ccccc3)c(C)nn2c1C | -7.39
CC(=O)N(C)c1ccc(NC(=O)C(c2ccccc2)c2ccccc2)cc1 | 0.528
CC(=O)c1c(C(C)=O)c(C)n(-c2nc(-c3cccs3)c(C)s2)c1C | 2.46
COc1cccc(C(=O)COc2ccc(NC(=O)c3ccccc3)cc2)c1 | -6.66
Cc1cc(NC(=O)CC23CC4CC(CC(C4)C2)C3)no1 | -1.93
COc1ccc(OCC(O)CNC(C)(C)C)cc1 (stereo not shown) | -4.06
CC1CCN(C(=O)C2CCN(S(=O)(=O)c3cccnc3)CC2)CC1 | -2.7
COc1ccc(C2CC(C(F)(F)F)n3ncc(C(=O)NCc4ccco4)c3N2)cc1OC (stereo not shown) | -1.93
CCCCN(CCNC(=O)c1c(C)oc2ncnc(N3CCOCC3)c12)Cc1ccco1 | -3.09
COc1cc(/C=C/c2nc(C#N)c(N3CCOCC3)o2)cc(OC)c1OC | 0.895
CCc1cccc(C)c1NC(=O)CSc1nc2ccccc2[nH]1 | 1.02
O=C(c1ccccc1)c1ccc2nc(NC3CCCC3)c3nncn3c2c1 | 4.56
Cc1ccccc1NC(=O)c1ccccc1C(=O)O | 3.56

Source: article PMC6919601, “Identification of Plasmodium dipeptidyl aminopeptidase allosteric inhibitors by high throughput screening” (PLoS ONE, 2019)
